Results: PubChem BioAssay AID1476 (National Center for Advancing Translational Sciences (NCATS), 2009)
Values joined by “and” are separate entries in the source; they are usually repeats but may differ in a detail not shown here. Equal entries are not always repeated. Screen size: about 200,000 compounds; about 4,500 (2.2%) were called active. Inconclusive results, whose numbers are uncertain, are shown with a selection of clear calls. The call rests on the fitted dose curve; in most records, active means well fitted inhibition curve with a large enough effect; inconclusive means small, poorly fitted or top-dose-only effect, or effect the other way; inactive means flat fitted curve, though single readings scatter. Potencies beside an inconclusive call are fits to weak or partial responses and may not hold up.

The compounds below were run against Cruzipain (Trypanosoma cruzi) (UniProt P25779) (assay: qHTS Assay for Promiscuous and Specific Inhibitors of Cruzain (without detergent)). Details: purified cruzain, Z-FR-AMC fluorescence, no detergent.
How it was run: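 Detergent-free condition (0.00005% Triton X-100) in acetate buffer pH 5.5 with DTT. 1.5 nM enzyme and compound were pre-mixed 15 min, then 2 uM Z-FR-AMC substrate added; reaction progress from fluorescence change between first and third reads (60 s).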
Further: nearly all actives have a fitted effect of over 40% in size.
Potency means the concentration at half of the fitted maximal effect; tags describe the fitted curve by direction and shape.
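Wherever max response, negative = inhibition is given: plate controls were enzyme without inhibitor for no effect and buffer without enzyme for full effect.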

UniProt P25779, sequence (P25779 whole entry, looked up): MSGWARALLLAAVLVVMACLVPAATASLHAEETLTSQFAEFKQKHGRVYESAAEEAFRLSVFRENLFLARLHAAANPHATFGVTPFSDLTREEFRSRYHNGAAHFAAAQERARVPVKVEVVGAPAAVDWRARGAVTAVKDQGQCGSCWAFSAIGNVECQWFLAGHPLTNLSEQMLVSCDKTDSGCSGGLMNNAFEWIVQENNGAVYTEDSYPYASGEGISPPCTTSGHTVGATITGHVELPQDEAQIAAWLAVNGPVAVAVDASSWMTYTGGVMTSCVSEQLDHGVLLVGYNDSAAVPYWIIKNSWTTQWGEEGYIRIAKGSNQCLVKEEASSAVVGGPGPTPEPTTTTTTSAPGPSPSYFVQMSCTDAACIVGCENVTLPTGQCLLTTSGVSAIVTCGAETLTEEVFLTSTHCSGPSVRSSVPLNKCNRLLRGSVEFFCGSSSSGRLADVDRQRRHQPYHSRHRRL

Row | Compound | max response, negative = inhibition | Potency
1 | COc1ccc(NC(=O)CCCc2nnc3n(CCC(C)C)c(=O)c4sccc4n23)c(OC)c1 | inactive: -6.21% | 
2 | Cc1cccc(NC(=O)c2sc3nc(-c4ccc(F)cc4)cn3c2C)n1 |  | inconclusive: 12.6 µM [activator, partial curve]
3 | COc1ccc(CCNC(=O)CSc2nc(N)c(C#N)c(-c3cccs3)c2C#N)cc1OC |  | inconclusive: 39.8 µM [activator, single point]
4 | COc1cccc(C(=O)Nc2ccc(-c3nc4ccccc4s3)cc2Cl)c1 |  | inconclusive: 31.6 µM [inhibitor, single point]
5 | CCCCOc1ccc(C(=O)N/C(=C/C=C/c2ccccc2)C(=O)NCCCO)cc1 |  | inconclusive: 31.6 µM [activator, single point]
6 | O=C(NCc1ccc2c(c1)OCO2)c1c(O)c2cccc3c2n(c1=O)CCC3 |  | inconclusive: 39.8 µM [inhibitor, single point]
7 | O=C(CSCC(=O)N1CCCCC1)Nc1nc(-c2ccccc2)c(-c2ccccc2)s1 |  | inconclusive: 39.8 µM [inhibitor, single point]
8 | COc1cc2oc(=O)c(CC(=O)N3CCCCC3)c(C)c2cc1OC |  | inconclusive: 31.6 µM [inhibitor, single point]
9 | COc1cc(C2CC(=O)Oc3ccc(C(C)(C)C)cc32)cc(OC)c1OC (stereo not given) |  | inconclusive: 50.1 µM [activator, single point]
10 | COc1ccccc1OCCNc1cc(N2CCOCC2)ccc1[N+](=O)[O-] | inactive: 26.2% | 
11 | CCn1c(=O)n(CC)c2cc(S(=O)(=O)N3CCC(c4ccccc4)CC3)ccc21 |  | inconclusive: 39.8 µM [activator, single point]
12 | CCc1ccc(NC(=O)C(=O)NCC(c2ccc3c(c2)OCO3)N2CCOCC2)cc1 (stereo not given) | inactive: -3.12% | 
13 | CC(C)OCCCNC(=O)c1c(N)n(Cc2cccs2)c2nc3ccccc3nc12 |  | inconclusive: 25.1 µM [activator, partial curve]
14 | CCOc1ccc2[nH]c(=O)c(C(c3nnnn3C3CCCCC3)N3CCN(C)CC3)cc2c1 (stereo not given) |  | inconclusive: 39.8 µM [activator, single point]
15 | COC(=O)[C@@]1(Cc2ccccc2)[C@H]2c3cc(C(=O)N4CCCC4)n(Cc4ccsc4Br)c3C[C@H]2CN1C(=O)c1ccccc1 |  | inconclusive: 31.6 µM [activator, single point] and inconclusive: 39.8 µM [activator, single point]
16 | CCCCCCSc1nc(O)c(C2OC(=O)c3c2ccc(OC)c3OC)c(=O)n1-c1ccccc1 (stereo not given) |  | inconclusive: 31.6 µM [activator, single point]
17 | CCC1=C(OC(=O)N(CC)CC)N2C(=O)OC(=NCCc3c[nH]c4ccccc34)[C@]2(Cc2ccccc2)[C@H]2C1=CC[C@H]1C(=O)NC(=O)[C@H]12 |  | inconclusive: 25.1 µM [activator, partial curve]
18 | O=c1oc(-c2ccccc2NS(=O)(=O)c2ccc3ccccc3c2)nc2ccccc12 |  | inconclusive: 39.8 µM [inhibitor, single point]
19 | COCC(C)NC(=O)c1ccc(-n2nc(C(F)(F)F)cc2-c2cccs2)cc1 (stereo not given) |  | inconclusive: 31.6 µM [activator, single point]
20 | Cc1nnc(N/N=C\c2ccc(-c3ccccc3[N+](=O)[O-])o2)n1N |  | active: 12.6 µM

Row | Compound | max response, negative = inhibition | Potency
21 | C=CCn1cc(/C=N/Nc2nc3ccccc3[nH]2)c2ccccc21 |  | inconclusive: 25.1 µM [inhibitor, single point]
22 | COc1cccc(N2C(=O)N(Cc3ccc(C#N)cc3)c3ccccc3S2(=O)=O)c1 |  | inconclusive: 39.8 µM [inhibitor, single point]
23 | CCCc1cc(C(=O)Nc2sc(C(C)=O)c(C)c2C(=O)OCC)no1 | inactive: -26.8% | 
24 | Cc1cc(C)n2nc(-c3ccc(F)cc3)nc2n1 | inactive: -5.7% | 
25 | COc1cccc(NS(=O)(=O)c2ccc3[nH]cc(C(=O)NCCc4ccccc4)c(=O)c3c2)c1 |  | active: 12.6 µM
26 | COc1cc(OC)c2c(OC)c(-c3ccc4c(c3)OCO4)c(=O)oc2c1 | inactive: -7.03% | 
27 | Cc1nn(-c2ccccc2)c(N2CCCC2)c1/C=C1\N=C(c2ccc(OC(C)C)cc2)OC1=O |  | active: 5.01 µM
28 | COc1cc(OC)c(C(=O)Nc2ccccc2-c2ccccc2)cc1OC |  | inconclusive: 39.8 µM [activator, single point]
29 | COc1ccc(CCNC(=O)Cn2c(=O)n(-c3cc(OC)c(OC)c(OC)c3)c(=O)c3ccccc32)cc1OC | inactive: -7.92% | 
30 | CCC(=O)C1=C(c2cccc([N+](=O)[O-])c2)N(C(=O)CC)n2c(nnc2-c2ccccc2)S1 | inactive: 5.64% | 
31 | Cn1c(CCNC(=O)c2ccccc2)nc2ccccc21 | inactive: -15.9% | 
32 | CCCCN(C(=O)c1ccco1)c1nnc(-c2cc(OC)c(OC)c(OC)c2)s1 |  | inconclusive: 31.6 µM [inhibitor, single point]
33 | COc1ccc(CCNc2ncnc3c2c(-c2ccccc2)cn3-c2ccc(F)cc2)cc1OC |  | inconclusive: 39.8 µM [activator, single point]
34 | CCOc1cc(/C=C/c2nc3cc(C)c(C)cc3s2)ccc1OCC(=O)N1CCOCC1 |  | inconclusive: 20 µM [activator, partial curve]
35 | C=CCn1c(=O)c2ccccc2n2c(SCC(=O)c3ccccc3)nnc12 |  | active: 15.8 µM
36 | Cc1ccc(-n2c(SCC(=O)Nc3ccc4c(c3)OCO4)nc3c([nH]c4ccccc43)c2=O)cc1 |  | active: 12.6 µM
37 | CCOC(=O)c1c(C)oc2cc(Br)c(OC(C)C(=O)OCC)cc12 (stereo not given) |  | inconclusive: 39.8 µM [activator, single point]
38 | CCOCC(=O)Nc1sc2c(c1C(=O)OCC)CCCC2 |  | inconclusive: 39.8 µM [activator, single point]
39 | CCCCNc1nc(Oc2ccc(OCC(N)=O)nn2)nc(N2CCOCC2)n1 | inactive: 9.3% | 
40 | CC(C)(C)c1ccc(CSc2nnc(-c3ccccc3NC(=O)c3ccccc3)o2)cc1 |  | inconclusive: 5.01 µM [inhibitor, partial curve]
